Measurements taken from US9439918B2 (priority 2008, dated 2016).

System: S. pneumoniae (ATCC 49619)
Experiment: Time kill curve
Type: cell-based
Conditions: tested at 2×, 4×, 8×MIC

CC[C@H]1OC(=O)[C@@](C)(F)C(=O)[C@H](C)[C@@H](OC2OC(C)CC(N(C)C)C2O)[C@@](C)(OC)C[C@@H](C)C(=O)[C@H](C)[C@H]2N(CCCCn3cc(-c4cccc(N)c4)nn3)C(=O)O[C@]12C (stereo partly shown) [CEM-101, 11-N-4-(3-aminophenyl)-[1,2,3]triazol-1-yl]-butyl-5-desosaminyl-3-oxo-2-fluoro-erythronolide A,-11,12-cyclic carbamate]
Antimicrobial activity (time kill curve): rapid bactericidal activity
